Laboratory results from patent US20260091097A1, “COMBINATION TREATMENT REGIMES FOR TREATING CANCER” (Barinthus Biotherapeutics North America, Inc., priority 2022, published 2026).

Tested on: neoAg-specific CD8+ T cells
Test: Flow cytometry of tetramer+ CD8+ T cells after SNP vaccination
Type: in vivo, mouse
Conditions: blood, day 21; SNP-SC (Reps1) prime, IV boost without Reps1
Experimental: For T cell tetramer analysis, cells were assessed for viability with LIVE/DEAD Fixable Blue Dead Cell Stain Kit (Invitrogen) in PBS containing 50 nM dasatinib (STEMCELL Technologies) for 30 min at room temperature. Samples were then washed and blocked with anti-CD16/CD32 (BD Biosciences). Cells were then stained with fluorescently conjugated tetramer in cell staining buffer (PBS and 2% FCS) containing 50 nM dasatinib to enhance staining. Cells were simultaneously stained with the following surface antibodies to: CD8 (clone 53-6.7), PD-1 (clone 29F.A12), Tim-3 (clone RMT3-23), CD44 (clone IM7), CD39 (clone Duha59), and NKG2A (clone 16A11) purchased from BioLegend and CD4 (clone RM4-4) purchased from BD Biosciences. After a 1-h incubation at 4° C., cells were washed twice in cell staining buffer, fixed and permeabilized using the FoxP3 transcription factor staining buffer set (eBioscience). […]
To assess whether there are differences in the magnitude of neoAg-specific CD8^+ T cells after SNP-SC or SNP-IV boost, whole blood was sampled on day 21, a week after the boost and measured the tetramer^+ population by flow cytometry (FIG. 1G). […]
As markers of exhaustion and antigen experience on CD8^+ T cells are important for improving the therapeutic effects of immune checkpoint blockade, the expression of PD-1, TIM-3 and NKG2A post vaccination were assessed. […]

Substance: polyIC:LC
- Frequency of neoAg-specific CD8+ T cells in circulation: approximately 1 % of total CD8+ T cells
